Data from patent publication EP4703382A1 (Kanglitai Biomedical (Qingdao) Co., Ltd., dated 2026).

How the values were obtained:
Assay in all cases: BLI (ForteBIO Octet QKe), PDL1-Fc loaded, analyte 100 nM
Fusion 8 = molecular target: T1, Fusion 8 (murine, UniProt P43431; P43432)
T1 construct: two PDL1-1 nanobodies fused with murine IL-12; also called mP35-P1-8his + P1-mP40

Fusion 9 = molecular target: T2, Fusion 9 (murine, UniProt P43431; P43432)
T2 construct: two PDL1-1 nanobodies fused with murine IL-12; also called P1-mP35-8his + P1-mP40

Fusion 5 = molecular target: T3, Fusion 5 (murine, UniProt P43431; P43432)
T3 construct: two PDL1-1 nanobodies fused with murine IL-12; also called P1-mP35-P1-8his + mP40

Fusion 4 = molecular target: T4, Fusion 4 (murine, UniProt P43431; P43432)
T4 construct: PDL1-1 nanobody fused with murine IL-12; two plasmids co-transfected 1:1; also called mP35-6his + P1-mP40

Fusion 1 = molecular target: T5, Fusion 1 (murine, UniProt P43431; P43432)
T5 construct: PDL1-1 nanobody fused with murine IL-12; two plasmids co-transfected 1:1; also called mP35-P1-8his + mP40

Fusion 3 = molecular target: T6, Fusion 3 (murine, UniProt P43431; P43432)
T6 construct: PDL1-1 nanobody fused with murine IL-12; two plasmids co-transfected 1:1; also called P1-mP35-8his + mP40

Fusion 2 = molecular target: T7, Fusion 2 (murine, UniProt P43431; P43432)
T7 construct: PDL1-1 nanobody fused with murine IL-12; two plasmids co-transfected 1:1; also called mP35-6his + mP40-P1

B1: human PDL1-Fc fusion protein (Fc fusion)
chain: not shown
notes: also called human PDL1-Fc recombinant protein
Kd (Fusion 8): 0.158 nM | koff (Fusion 8): 0.000146 s⁻¹ | kon (Fusion 8): 925000 M⁻¹ s⁻¹ | Kd (Fusion 9): 0.0589 nM | koff (Fusion 9): 5.71e-05 s⁻¹ | kon (Fusion 9): 969000 M⁻¹ s⁻¹ | Kd (Fusion 5): 0.239 nM | koff (Fusion 5): 0.000151 s⁻¹ | kon (Fusion 5): 631000 M⁻¹ s⁻¹ | Kd (Fusion 4): 7.4 nM | koff (Fusion 4): 0.00478 s⁻¹ | kon (Fusion 4): 647000 M⁻¹ s⁻¹ | Kd (Fusion 1): 13.5 nM | koff (Fusion 1): 0.00646 s⁻¹ | kon (Fusion 1): 477000 M⁻¹ s⁻¹ | Kd (Fusion 3): 4.05 nM | koff (Fusion 3): 0.00375 s⁻¹ | kon (Fusion 3): 924000 M⁻¹ s⁻¹ | Kd (Fusion 2): 11.5 nM | koff (Fusion 2): 0.00735 s⁻¹ | kon (Fusion 2): 639000 M⁻¹ s⁻¹
